The whole screen tested about 360,000 compounds, of which about 25,000 (6.9%) were called active. Inconclusive results, whose numbers are uncertain, are shown with a selection of clear calls. The call rests on the fitted dose curve; in most records, active means well fitted inhibition curve with a large enough effect; inconclusive means small, poorly fitted or top-dose-only effect; inactive means flat fitted curve, though single readings scatter. A potency beside an inconclusive call is a rough fit, not a confirmed value.
Each compound was assayed against Luciferin 4-monooxygenase (Photinus pyralis) (UniProt P08659) (assay: qHTS profiling assay for firefly luciferase inhibitor/activator using purifed enzyme and Km concentrations of substrates (counterscreen for miR-21 project)). Settings: purified FLuc, luminescence inhibition; series mostly up to 57.5 µM.
Chain of UniProt P08659 (P08659 whole entry, looked up): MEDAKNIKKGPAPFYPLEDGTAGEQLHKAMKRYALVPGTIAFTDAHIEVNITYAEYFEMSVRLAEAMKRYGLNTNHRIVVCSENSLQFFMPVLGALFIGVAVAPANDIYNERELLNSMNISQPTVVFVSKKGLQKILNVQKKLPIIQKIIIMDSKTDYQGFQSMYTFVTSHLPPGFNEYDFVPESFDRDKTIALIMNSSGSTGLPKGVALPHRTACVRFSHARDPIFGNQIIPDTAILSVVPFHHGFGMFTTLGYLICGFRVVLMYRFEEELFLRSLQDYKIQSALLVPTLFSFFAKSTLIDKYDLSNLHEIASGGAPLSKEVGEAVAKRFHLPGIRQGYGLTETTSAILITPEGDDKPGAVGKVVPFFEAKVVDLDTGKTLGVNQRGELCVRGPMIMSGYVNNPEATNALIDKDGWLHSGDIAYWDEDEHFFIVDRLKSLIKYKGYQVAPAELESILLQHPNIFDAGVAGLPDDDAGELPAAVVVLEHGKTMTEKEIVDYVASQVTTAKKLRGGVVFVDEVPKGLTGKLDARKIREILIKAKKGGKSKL
How it was run: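 Purified P. pyralis luciferase (10nM final) with 10uM D-luciferin and 10uM ATP (Km levels) in 50mM Tris acetate pH 7.5, 10mM Mg acetate, 0.01% Tween-20, 0.05% BSA; qHTS 6-point titration, ~60 µM downward; luminescence read.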
In the case of `CCOc1cccc(C(=O)Nc2nccs2)c1`, the Potency is reported as active: 15.1 µM.
`Cc1ccc(CCC(=O)Nc2ccc(C)c(C)c2)o1` was tested, and the Potency was inconclusive: 37.9 µM [inhibitor, partial curve, poor fit].
For `Cc1cc(=O)oc2cc(NC(=O)c3ccccc3C(=O)O)ccc12`, the Potency was active: 10.7 µM.
For `COc1ccc(/C(C)=N/NS(=O)(=O)c2cc(C)ccc2C)c(OC)c1`, the Potency was inconclusive: 21.3 µM [inhibitor, partial curve, poor fit].
With `Fc1ccc(OCc2nc3ccccc3s2)cc1` the Potency was active: 2.39 µM.
With `COc1cccc(-c2ncc3ccccn23)c1` the Potency was active: 8.49 µM.
For `CN(C)c1ccc(/C=N/NC(=O)c2cnc3ccccc3c2)cc1`, the Potency was inconclusive: 2.69 µM [inhibitor, full curve].
With `COc1ccc(Nc2nc3ccccc3s2)cc1` the Potency was active: 5.36 µM.
`O=C(NCc1ccccc1CN1CCCC1)c1cccc(S(=O)(=O)Nc2ccc(F)cc2)c1` was tested, and the Potency was “inactive”.
With `COc1ccc(OCCC(=O)OCC(=O)NCc2ccc(F)cc2)cc1` the Potency was “inactive”.
With `CCCSC1=N/C(=C\c2ccc3c(c2)OCO3)C(=O)S1` the Potency was inconclusive: 26.9 µM [inhibitor, single point].
In the case of `O=C(NC(C(=O)N/N=C/c1c2ccccc2cc2ccccc12)c1n[nH]c(=O)c2ccccc12)c1ccccc1` (stereo not drawn), the Potency is reported as “inactive”.
For `Cc1cccc(N=C2NC(=O)/C(=C\c3cccs3)S2)c1`, the Potency was inconclusive: 12 µM [inhibitor, partial curve].
With `COc1ccccc1/C=C1\N=C(C(C)(C)C)OC1=O` the Potency was active: 16.9 µM.
For `CC(=O)c1c(C)[nH]c(C(=O)Nc2ccc(S(=O)(=O)N(C)C)cc2)c1C`, the Potency was “inactive”.
`COc1ccc(C2=NNC(=Nc3cc(S(=O)(=O)N(C)C)ccc3C)SC2)c(OC)c1` was tested, and the Potency was “inactive”.
In the case of `Cc1ccc(-c2cc(=O)c3ccc(F)cc3[nH]2)cc1`, the Potency is reported as inconclusive: 8.49 µM [inhibitor, partial curve, poor fit].
`COc1ccc(NC(=O)c2cc(-c3ccco3)on2)cc1` was tested, and the Potency was inconclusive: 1.69 µM [inhibitor, full curve].
`Cc1ccc(CCNS(=O)(=O)c2c(C)nc3sc(C)c(C)n3c2=O)cc1` was tested, and the Potency was “inactive”.
In the case of `COc1ccc(Oc2ncnc3sccc23)cc1`, the Potency is reported as inconclusive: 26.9 µM [inhibitor, partial curve].
With `Cc1nc(SCc2cccc(Oc3ccccc3)c2)n[nH]1` the Potency was inconclusive: 23.9 µM [inhibitor, single point].
`O=C(O)COc1ccc(C(=O)Cc2ccc3c(c2)OCCCO3)c(O)c1` was tested, and the Potency was active: 26.9 µM.
With `O=C(CSc1ccccn1)Nc1ccc2c(c1)CCC2` the Potency was active: 12 µM.
`O=S(=O)(Cc1ccccc1)N1CCN(Cc2ccc(Br)cc2)CC1` was tested, and the Potency was inconclusive: 30.1 µM [inhibitor, single point].
For `Cc1noc(-c2ccc(NC(C)c3ccccc3)c([N+](=O)[O-])c2)n1` (stereo not drawn), the Potency was inconclusive: 30.1 µM [inhibitor, single point].
`CCOC(=O)CC(=O)CSc1nc2ccsc2c(=O)n1Cc1ccccc1` was tested, and the Potency was inconclusive: 23.9 µM [inhibitor, partial curve, poor fit].
In the case of `N=c1c2c(-c3ccccc3)c(-c3ccccc3)n(Cc3ccccc3)c2ncn1CCCO`, the Potency is reported as “inactive”.
`O=C(c1ccccc1)[C@H]1[C@H](c2ccccc2)[C@@]2(N=C(c3ccccc3)OC2=O)C2c3ccccc3C=NN21` (stereo partly drawn) was tested, and the Potency was inconclusive: 10.7 µM [inhibitor, partial curve].
For `O=C(CN1CCc2ccccc21)Nc1ccc2c(c1)OCO2`, the Potency was inconclusive: 30.1 µM [inhibitor, partial curve, poor fit].
With `Cc1ccc(S(=O)(=O)N2CCCCC2)cc1C(=O)OC1CCCCC1=O` (stereo not drawn) the Potency was “inactive”.
`COc1ccc(-c2cc(-c3nnc(-c4ccncc4)o3)c3ccccc3n2)cc1` was tested, and the Potency was active: 2.69 µM.
With `COc1ccccc1NC(=O)CC(=O)CSc1nnc(-c2ccc(C)cc2)n1C` the Potency was inconclusive: 30.1 µM [inhibitor, single point].
In the case of `NC(=O)COC(=O)c1ccccc1Nc1ccc(SC(F)F)cc1`, the Potency is reported as inconclusive: 21.3 µM [inhibitor, single point].
`N#Cc1ccccc1OCC(=O)Nc1ccc2c(c1)OCCCO2` was tested, and the Potency was active: 16.9 µM.
With `Cc1ccc(CN2CC(=O)N3[C@H]4c5cc(C)ccc5OC[C@@H]4[C@H](c4ccccc4)[C@]3(C)C2=O)cc1` the Potency was “inactive”.
In the case of `O=C(CCNC(=O)c1ccc(Cl)cc1)NNC(=O)c1ccc(F)cc1`, the Potency is reported as “inactive”.
`CCc1ccc2nc(NC(=O)c3ccc(N4C(=O)CCC4=O)cc3)sc2c1` was tested, and the Potency was active: 8.49 µM.
In the case of `CCOc1cc2c(cc1OCC)C(CC(=O)O)N(C(=O)Nc1ccccc1C(F)(F)F)CC2` (stereo not drawn), the Potency is reported as “inactive”.
With `COc1ccc(NC(=O)c2cc3c(s2)CCC(C)C3)cc1S(=O)(=O)N1CCOCC1` (stereo not drawn) the Potency was inconclusive: 23.9 µM [inhibitor, single point].
With `CCOC(=O)C(C)On1c(-c2cccc(Cl)c2)nc2ccc([N+](=O)[O-])cc21` (stereo not drawn) the Potency was inconclusive: 23.9 µM [inhibitor, partial curve].
With `CC(=O)Oc1ccc(-c2nc3c(C)cccc3c(=O)o2)cc1` the Potency was “inactive”.
For `N#Cc1nn(-c2ccccc2)nc1N1CCCCC1`, the Potency was inconclusive: 33.8 µM [inhibitor, single point].
`Cc1noc(C)c1C(=O)Nc1nc(-c2ccc(F)c(F)c2)cs1` was tested, and the Potency was inconclusive: 42.6 µM [inhibitor, partial curve, poor fit].
With `Cc1cc(C)n2nc(C(=O)OCC(=O)c3ccccc3Cl)nc2n1` the Potency was inconclusive: 26.9 µM [inhibitor, single point].
`COC(=O)C(NC(=O)CCc1c(C)nc2c(-c3ccccc3)c(C)nn2c1C)C(C)C` (stereo not drawn) was tested, and the Potency was “inactive”.
For `N=c1oc2ccccc2cc1-c1nc2ccccc2c(=O)[nH]1`, the Potency was inconclusive: 12 µM [inhibitor, partial curve].
For `O=C(COC(=O)C1CCN(c2ccc(C(F)(F)F)cn2)CC1)c1ccc(Cl)cc1`, the Potency was inconclusive: 23.9 µM [inhibitor, single point].
For `O=C(OCc1cc([N+](=O)[O-])cc2c1OCOC2)c1ccc2ccccc2n1`, the Potency was “inactive”.

From PubChem BioAssay AID588342 (National Center for Advancing Translational Sciences (NCATS), 2011)
Further: nearly all actives have a fitted effect of over 55% in size.
Potency means the concentration at half of the fitted maximal effect; tags describe the fitted curve by direction and shape.
